# Test results taken from the supplement of paper PMC8728848.
# This is one part of the list.
# How the values were obtained:
# Assay in all cases: glycan array binding signal (z-score within array); higher = stronger binding
# Conditions in all cases: glycan notation: IUPAC condensed, linker removed
# Fuc(a1-2)Gal = target: Fuc(a1-2)Gal
# In short: (§1)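 Glycan array binding is given as a within-array Z-score, which can be read as non-binding when negative. The arrays, 3228 of them, came from the Consortium for Functional Glycomics database and were retained only where the protein sequence was available. Z-scores were averaged across arrays of the same protein sequence at different concentrations or buffers and across linkers.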
# Fuc(a1-2)Gal(b1-3)GalNAc = target: Fuc(a1-2)Gal(b1-3)GalNAc
# In short: as §1
# [1] = target: Fuc(a1-2)Gal(b1-3)GalNAc(b1-3)Gal
# In short: as §1
# [2] = target: Fuc(a1-2)Gal(b1-3)GalNAc(b1-3)Gal(a1-4)Gal(b1-4)Glc
# In short: as §1
# [3] = target: Fuc(a1-2)Gal(b1-3)GalNAc(b1-4)[Neu5Ac(a2-3)]Gal(b1-4)Glc
# In short: as §1
# Fuc(a1-2)Gal(b1-3)GlcNAc = target: Fuc(a1-2)Gal(b1-3)GlcNAc
# In short: as §1
# [4] = target: Fuc(a1-2)Gal(b1-3)GlcNAc(b1-3)Gal(b1-4)Glc
# In short: as §1
# [5] = target: Fuc(a1-2)Gal(b1-3)[Fuc(a1-4)]GlcNAc
# In short: as §1
# Fuc(a1-2)Gal(b1-4)Glc = target: Fuc(a1-2)Gal(b1-4)Glc
# In short: as §1
# Fuc(a1-2)Gal(b1-4)GlcNAc = target: Fuc(a1-2)Gal(b1-4)GlcNAc
# In short: as §1
# [6] = target: Fuc(a1-2)Gal(b1-4)GlcNAc(b1-3)Gal(b1-4)GlcNAc
# In short: as §1
# [7] = target: Fuc(a1-2)Gal(b1-4)GlcNAc(b1-3)Gal(b1-4)GlcNAc(b1-3)Gal(b1-4)GlcNAc
# In short: as §1
# [8] = target: Fuc(a1-2)Gal(b1-4)[Fuc(a1-3)]GlcNAc
# In short: as §1
# [9] = target: Fuc(a1-2)Gal(b1-4)[Fuc(a1-3)]GlcNAc(b1-3)Gal(b1-4)[Fuc(a1-3)]GlcNAc
# In short: as §1
# [10] = target: Fuc(a1-2)Gal(b1-4)[Fuc(a1-3)]GlcNAc(b1-3)Gal(b1-4)[Fuc(a1-3)]GlcNAc(b1-3)Gal(b1-4)[Fuc(a1-3)]GlcNAc
# In short: as §1
# Fuc(a1-2)GlcNAc = target: Fuc(a1-2)GlcNAc
# In short: as §1
# Fuc(a1-2)[Gal(a1-3)]Gal = target: Fuc(a1-2)[Gal(a1-3)]Gal
# In short: as §1
# [11] = target: Fuc(a1-2)[Gal(a1-3)]Gal(b1-3)GlcNAc
# In short: as §1
# [12] = target: Fuc(a1-2)[Gal(a1-3)]Gal(b1-4)Glc
# In short: as §1
# [13] = target: Fuc(a1-2)[Gal(a1-3)]Gal(b1-4)GlcNAc
# In short: as §1
# [14] = target: Fuc(a1-2)[Gal(a1-3)]Gal(b1-4)[Fuc(a1-3)]GlcNAc
# In short: as §1
# [15] = target: Fuc(a1-2)[Gal(a1-4)]Gal(b1-4)GlcNAc
# In short: as §1
# [16] = target: Fuc(a1-2)[GalNAc(a1-3)]Gal
# In short: as §1
# [17] = target: Fuc(a1-2)[GalNAc(a1-3)]Gal(b1-3)GlcNAc
# In short: as §1
# [18] = target: Fuc(a1-2)[GalNAc(a1-3)]Gal(b1-4)Glc
# In short: as §1
# [19] = target: Fuc(a1-2)[GalNAc(a1-3)]Gal(b1-4)GlcNAc
# In short: as §1
# [20] = target: Fuc(a1-2)[GalNAc(a1-3)]Gal(b1-4)[Fuc(a1-3)]GlcNAc
# In short: as §1
# [21] = target: Fuc(a1-2)[GalNAc(a1-4)]Gal(b1-4)GlcNAc
# In short: as §1
# [22] = target: Fuc(a1-2)[GalNAc(b1-3)]Gal
# In short: as §1
# Fuc(a1-3)GlcNAc = target: Fuc(a1-3)GlcNAc
# In short: as §1
binder,measurement,setting,value
"CLEC7A (Homo sapiens), Q9BXN2 (protein) MEYHPDLENLDEDGYTQLHFDSQSNTRIAVVSEKGSCAASPPWRLIAVILGILCLVILVIAVVLGTMAIWRSNSGSNTLENGYFLSRNKENHSQPTQSSLEDSVTPTKAVKTTGVLSSPCPPNWIIYEKSCYLFSMSLNSWDGSKRQCWQLGSNLLKIDSSNELGFIVKQVSSQPDNSFWIGLSRPQTEVPWLWEDGSTFSSNLFQIRTTATQENPSPNCVWIHVSVIYDQLCSVPSYSICEKKFSM",glycan array binding signal (z-score),Fuc(a1-2)Gal,-0.219
same,glycan array binding signal (z-score),Fuc(a1-2)Gal(b1-3)GalNAc,0.23
same,glycan array binding signal (z-score),[1],0.421
same,glycan array binding signal (z-score),[2],0.301
same,glycan array binding signal (z-score),[3],-0.104
same,glycan array binding signal (z-score),Fuc(a1-2)Gal(b1-3)GlcNAc,-0.16
same,glycan array binding signal (z-score),[4],-0.058
same,glycan array binding signal (z-score),[5],-0.999
same,glycan array binding signal (z-score),Fuc(a1-2)Gal(b1-4)Glc,-0.527
same,glycan array binding signal (z-score),Fuc(a1-2)Gal(b1-4)GlcNAc,-0.842
same,glycan array binding signal (z-score),[6],-0.798
same,glycan array binding signal (z-score),[7],0.509
same,glycan array binding signal (z-score),[8],-0.352
same,glycan array binding signal (z-score),[9],-0.311
same,glycan array binding signal (z-score),[10],0.077
same,glycan array binding signal (z-score),Fuc(a1-2)GlcNAc,-0.179
same,glycan array binding signal (z-score),Fuc(a1-2)[Gal(a1-3)]Gal,0.273
same,glycan array binding signal (z-score),[11],-0.447
same,glycan array binding signal (z-score),[12],-0.383
same,glycan array binding signal (z-score),[13],-0.043
same,glycan array binding signal (z-score),[14],-0.165
same,glycan array binding signal (z-score),[15],-0.703
same,glycan array binding signal (z-score),[16],-0.472
same,glycan array binding signal (z-score),[17],-0.353
same,glycan array binding signal (z-score),[18],-0.922
same,glycan array binding signal (z-score),[19],0.091
same,glycan array binding signal (z-score),[20],-0.815
same,glycan array binding signal (z-score),[21],0.042
same,glycan array binding signal (z-score),[22],-0.22
same,glycan array binding signal (z-score),Fuc(a1-3)GlcNAc,-0.337
